# According to article PMC9177837:
# Results are given in words; binding and its absence hold for the method and conditions named. In cells and extracts the contact can be indirect. Some entries that bind do so weakly or less than the wild type.
# Assays:
# MET WT (MET plasmid) [1] = molecular target: MET WT (MET plasmid) (UniProt P08581); assay: co-IP; MET overexpressed in HepG2-WT and HepG2-MET-KO cells; MET immunoprecipitated, immunoblot of endogenous PTP4A1 and p-SHP2 (Fig. 7a)
# MET WT (MET plasmid) [2] = molecular target: MET WT (MET plasmid) (UniProt P08581); assay: co-IP; HepG2-MET-KO cells transfected with MET WT, MET Y1349F and/or PTP4A1 plasmid, 48 h; lysates immunoprecipitated with anti-MET antibody, immunoblot (Fig. 8b); also MET-transfected cells treated with 50 ng/mL r-LECT2 and/or 10 ng/mL HGF for 1 h (Fig. 8d)
# [3] = molecular target: MET (human (endogenous in HepG2)) (UniProt P08581); assay: co-IP; endogenous proteins; HepG2-WT lysate immunoprecipitated with anti-MET antibody on Dynabeads Protein G, immunoblot; cells untreated or treated with r-LECT2 (0, 5, 10, 50 ng/mL, 6 h)
# MET Y1349F = MET Y1349F (UniProt P08581); assay: co-IP; HepG2-MET-KO cells transfected with MET WT, MET Y1349F and/or PTP4A1 plasmid, 48 h; lysates immunoprecipitated with anti-MET antibody, immunoblot (Fig. 8b); also MET-transfected cells treated with 50 ng/mL r-LECT2 and/or 10 ng/mL HGF for 1 h (Fig. 8d)
binding (MET WT (MET plasmid) [1]),binding (MET WT (MET plasmid) [2]),binding [3],binding (MET Y1349F),Binder
binds,binds,binds,,"PTP4A1 (enzyme, UniProt Q93096 1-173) MARMNRPAPVEVTYKNMRFLITHNPTNATLNKFIEELKKYGVTTIVRVCEATYDTTLVEKEGIHVLDWPFDDGAPPSNQIVDDWLSLVKIKFREEPGCCIAVHCVAGLGRAPVLVALALIEGGMKYEDAVQFIRQKRRGAFNSKQLLYLEKYRPKMRLRFKDSNGHRNNCCIQ"
,binds,,no binding,"PTP4A1 (overexpressed from the PTP4A1 plasmid) (enzyme, UniProt Q93096 1-173) MARMNRPAPVEVTYKNMRFLITHNPTNATLNKFIEELKKYGVTTIVRVCEATYDTTLVEKEGIHVLDWPFDDGAPPSNQIVDDWLSLVKIKFREEPGCCIAVHCVAGLGRAPVLVALALIEGGMKYEDAVQFIRQKRRGAFNSKQLLYLEKYRPKMRLRFKDSNGHRNNCCIQ"
